Data published in the supplement of paper PMC4967469.
pIC50: −log10 of the molar value. A lower IC50 marks a more sensitive line; a fit beyond the top or the lowest dose is shown as a bound at that dose. The AUC spans the tested range (256-fold, ending at the top dose) of the same fit; it is 1 without any effect and falls as sensitivity rises. Any top dose called inferred was derived from the fitted curves, not read from the paper.

Assays:
Assay in all cases: Viability of human cancer cell lines after 72 h of drug (GDSC screen)
[1] = compound: CC(C)N(CCCNC(=O)Nc1ccc(C(C)(C)C)cc1)C[C@H]1O[C@@H](n2cc(Br)c3c(N)ncnc32)[C@H](O)[C@@H]1O [SGC0946]; conditions: top dose 0.5 µM; top dose inferred
Experimental: (§1)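 Human cancer cell lines in 384-well plates, medium with 10% serum, drug for 72 h over a 256-fold dose range (nine 2-fold or five 4-fold steps up to the top dose). Adherent lines were fixed and stained with the nucleic acid dye Syto60, suspension lines read with resazurin; signal relative to control wells, capped at 0 and 100%. One two-parameter sigmoid per drug and line, fitted in a mixed model over all curves with the slope shared within a line.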

[2] = compound: CCC/C=C/C=C/C(=O)O[C@H]1/C(=C/C(=O)OC)C[C@H]2C[C@H]([C@@H](C)O)OC(=O)C[C@H](O)C[C@@H]3C[C@H](OC(C)=O)C(C)(C)[C@](O)(C[C@@H]4C/C(=C/C(=O)OC)C[C@H](/C=C/C(C)(C)[C@]1(O)O2)O4)O3 [Bryostatin 1]; conditions: top dose 0.008 µM; top dose inferred
Experimental: as §1

[3] = compound: COc1ccc(COc2ccc(Cc3cnc(N)nc3N)cc2OC)cc1 [GW-2580]; conditions: top dose 20 µM; top dose inferred
Experimental: as §1

[4] = compound: Nc1cccc2c1CN(C1CCC(=O)NC1=O)C2=O [Lenalidomide]; conditions: top dose 5 µM; top dose inferred
Experimental: as §1

Cell Line	AUC [1]	pIC50 [1]	AUC [2]	pIC50 [2]	AUC [3]	pIC50 [3]	AUC [4]	pIC50 [4]
NCI-H1792 (lung adenocarcinoma, adherent)	0.986	< 6.30	0.965	< 8.10	0.983	< 4.70	0.977	< 5.30
NCI-H1944 (lung adenocarcinoma, adherent)	0.973	< 6.30	0.937	< 8.10	0.982	< 4.70	0.985	< 5.30
NCI-H1993 (lung adenocarcinoma, adherent)	0.976	< 6.30	0.945	< 8.10	0.983	< 4.70	0.94	< 5.30
NCI-H2009 (lung adenocarcinoma, adherent)	0.985	< 6.30	0.96	< 8.10	0.982	< 4.70	0.978	< 5.30
NCI-H2023 (lung adenocarcinoma, adherent)	0.98	< 6.30	0.98	< 8.10	0.983	< 4.70	0.976	< 5.30
NCI-H2029 (small cell lung carcinoma, adherent)	0.983	< 6.30	0.992	< 8.10	0.979	< 4.70	0.977	< 5.30
NCI-H2081 (small cell lung carcinoma, suspension)	0.988	< 6.30	0.989	< 8.10	0.975	< 4.70	0.973	< 5.30
NCI-H2087 (lung adenocarcinoma, semi-adherent)	0.979	< 6.30	0.986	< 8.10	0.973	< 4.70	0.983	< 5.30
NCI-H2110 (non-small cell lung carcinoma, adherent)	0.985	< 6.30	0.961	< 8.10	0.986	< 4.70	0.978	< 5.30
NCI-H2122 (lung adenocarcinoma, adherent)	0.988	< 6.30	0.902	< 8.10	0.989	< 4.70	0.978	< 5.30
NCI-H2141 (small cell lung carcinoma, suspension)	0.99	< 6.30	0.989	< 8.10	0.916	< 4.70	0.991	< 5.30
NCI-H2227 (small cell lung carcinoma, semi-adherent)	0.983	< 6.30	0.983	< 8.10	0.984	< 4.70	0.986	< 5.30
NCI-H2291 (lung adenocarcinoma, adherent)	0.887	< 6.30	0.983	< 8.10	0.984	< 4.70	0.982	< 5.30
NCI-H2342 (lung adenocarcinoma, adherent)	0.984	< 6.30	0.923	< 8.10	0.948	< 4.70	0.961	< 5.30
NCI-H2347 (lung adenocarcinoma, adherent)	0.971	< 6.30	0.976	< 8.10	0.98	< 4.70	0.983	< 5.30
NCI-H2405 (lung adenocarcinoma, adherent)	0.949	< 6.30	0.979	< 8.10	0.975	< 4.70	0.973	< 5.30
NCI-H2444 (non-small cell lung carcinoma, adherent)	0.987	< 6.30	0.988	< 8.10	0.98	< 4.70	0.987	< 5.30
NCI-H2452 (mesothelioma, adherent)	0.982	< 6.30	0.948	< 8.10	0.97	< 4.70	0.984	< 5.30
NCI-H3122 (lung adenocarcinoma, adherent)	0.985	< 6.30	0.981	< 8.10	0.986	< 4.70	0.987	< 5.30

Cell Line	AUC [1]	pIC50 [1]	AUC [2]	pIC50 [2]	AUC [3]	pIC50 [3]	AUC [4]	pIC50 [4]
NCI-SNU-1 (stomach, suspension)	0.984	< 6.30	0.986	< 8.10	0.98	< 4.70	0.986	< 5.30
NCI-SNU-16 (stomach, suspension)	0.985	< 6.30	0.991	< 8.10	0.986	< 4.70	0.985	< 5.30
NKM-1 (acute myeloid leukaemia, suspension)	0.943	< 6.30	0.984	< 8.10	0.899	< 4.70	0.94	< 5.30
NMC-G1 (glioma, adherent)	0.979	< 6.30	0.926	< 8.10	0.976	< 4.70	0.973	< 5.30
NOS-1 (osteosarcoma, adherent)	0.977	< 6.30	0.965	< 8.10	0.96	< 4.70	0.948	< 5.30
NU-DUL-1 (B-cell lymphoma, suspension)	0.992	< 6.30	0.814	8.48	0.983	< 4.70	0.993	< 5.30
NUGC-4 (stomach, adherent)	0.978	< 6.30	0.984	< 8.10	0.945	< 4.70	0.98	< 5.30
NY (osteosarcoma, adherent)	0.987	< 6.30	0.975	< 8.10	0.961	< 4.70	0.988	< 5.30
OAW-42 (ovary, adherent)	0.984	< 6.30	0.982	< 8.10	0.967	< 4.70	0.986	< 5.30
OCI-AML2 (acute myeloid leukaemia, suspension)	0.995	< 6.30	0.992	< 8.10	0.992	< 4.70	0.989	< 5.30
OCI-AML3 (acute myeloid leukaemia, suspension)	0.99	< 6.30	0.982	< 8.10	0.975	< 4.70	0.961	< 5.30
OCI-AML5 (acute myeloid leukaemia, suspension)	0.984	< 6.30	0.945	< 8.10	0.912	< 4.70	0.986	< 5.30
OCUM-1 (stomach, adherent)	0.978	< 6.30	0.926	< 8.10	0.98	< 4.70	0.987	< 5.30
OE19 (oesophagus, adherent)	0.985	< 6.30	0.984	< 8.10	0.985	< 4.70	0.978	< 5.30
OE21 (oesophagus, adherent)	0.969	< 6.30	0.911	< 8.10	0.978	< 4.70	0.944	< 5.30
OE33 (oesophagus, adherent)	0.981	< 6.30	0.977	< 8.10	0.976	< 4.70	0.91	< 5.30
ONS-76 (medulloblastoma, adherent)	0.983	< 6.30	0.964	< 8.10	0.984	< 4.70	0.95	< 5.30
OSC-20 (head and neck, adherent)	0.957	< 6.30	0.982	< 8.10	0.974	< 4.70	0.963	< 5.30
OV-90 (ovary, adherent)	0.971	< 6.30	0.915	< 8.10	0.971	< 4.70	0.976	< 5.30

Cell Line	AUC [1]	pIC50 [1]	AUC [2]	pIC50 [2]	AUC [3]	pIC50 [3]	AUC [4]	pIC50 [4]
OVCAR-5 (ovary, adherent)	0.98	< 6.30	0.98	< 8.10	0.982	< 4.70	0.982	< 5.30
OVCAR-8 (ovary, adherent)	0.983	< 6.30	0.988	< 8.10	0.989	< 4.70	0.973	< 5.30
OVISE (ovary, adherent)	0.978	< 6.30	0.978	< 8.10	0.981	< 4.70	0.964	< 5.30
OVKATE (ovary, adherent)	0.975	< 6.30	0.97	< 8.10	0.979	< 4.70	0.979	< 5.30
OVMIU (ovary, adherent)	0.978	< 6.30	0.972	< 8.10	0.974	< 4.70	0.981	< 5.30
OVTOKO (ovary, adherent)	0.975	< 6.30	0.967	< 8.10	0.98	< 4.70	0.968	< 5.30
P12-ICHIKAWA (T-cell lymphoblastic leukaemia, suspension)	0.994	< 6.30	0.992	< 8.10	0.99	< 4.70	0.989	< 5.30
P30-OHK (lymphoblastic leukaemia, suspension)	0.98	< 6.30	0.874	8.25	0.99	< 4.70	0.945	< 5.30
P31-FUJ (acute myeloid leukaemia, suspension)	0.996	< 6.30	0.996	< 8.10	0.994	< 4.70	0.99	< 5.30
PA-TU-8902 (pancreas, adherent)	0.981	< 6.30	0.964	< 8.10	0.98	< 4.70	0.983	< 5.30
PA-TU-8988T (pancreas, adherent)	0.986	< 6.30	0.97	< 8.10	0.973	< 4.70	0.977	< 5.30
PANC-02-03 (pancreas, adherent)	0.981	< 6.30	0.972	< 8.10	0.983	< 4.70	0.968	< 5.30
PANC-03-27 (pancreas, adherent)	0.987	< 6.30	0.979	< 8.10	0.964	< 4.70	0.988	< 5.30
PANC-08-13 (pancreas, adherent)	0.981	< 6.30	0.972	< 8.10	0.971	< 4.70	0.904	< 5.30
PC-3 [JPC-3] (lung adenocarcinoma, adherent)	0.979	< 6.30	0.973	< 8.10	0.972	< 4.70	0.981	< 5.30
PC-14 (lung adenocarcinoma, adherent)	0.984	< 6.30	0.943	< 8.10	0.989	< 4.70	0.988	< 5.30
PCI-4B (head and neck, adherent)	0.98	< 6.30	0.966	< 8.10	0.987	< 4.70	0.976	< 5.30
PCI-6A (head and neck, adherent)	0.986	< 6.30	0.987	< 8.10	0.988	< 4.70	0.958	< 5.30
PCI-15A (head and neck, adherent)	0.986	< 6.30	0.976	< 8.10	0.984	< 4.70	0.988	< 5.30
